About 60 (0.1%) of roughly 46,000 compounds were called active. Roughly 3% stayed inconclusive and do not appear here. Calls come from the whole dose curve; as a rule, active = well fitted inhibition curve with a large enough effect; inconclusive = small, poorly fitted or top-dose-only effect; inactive = no such curve, though single readings can be large or run the other way. The list shows a part of the results.
assay: Primary qHTS assay for Inhibitors of ovarian cancer metastasis using an organotypic tumor microenvironment (TME) model.; note: nearly all actives have a fitted effect of over 65% in size;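 for activity change, negative = inhibition: plate controls were DMSO wells for no effect and tomatine positive control wells for full effect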; conditions: SKOV3ip1-GFP adhesion/invasion on 3D omental model, fluorescence; series mostly up to 45.8 µM; activity change, negative = inhibition: at the top concentration
Method in brief: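 Adhesion/invasion was scored as fixed GFP-labeled SKOV3ip1 cell counts (488/509 nm), normalized to DMSO and tomatine controls. Cancer cells in serum-free medium, with four compound doses (0.36-46 umol/L), sat 2 hr at RT then 16 hr at 37 C on a 48 hr fibroblast/mesothelial/ECM culture.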

outcome, inactive:
Cc1nn(-c2ccc(N3CCCC3)nn2)c(C)c1CCC(=O)N1CCN(c2ccc(F)cc2)CC1
CCOC(=O)c1ccc(NC(=O)c2c(NCc3ccc(OC)c(OC)c3OC)sc3c2CCC(C)C3)cc1 (stereo not drawn)
Cc1cccc(NC(=O)Cn2c(=O)n(CC3CCC(C(=O)NCCc4ccccc4)CC3)c(=O)c3ccccc32)c1C (stereo not drawn)
Cc1ccc2[nH]c(C)c(CCNC(=O)c3cc4cc(Br)ccc4oc3=O)c2c1
CCOc1ccccc1CNC(=O)CCCn1c(=O)c2cccn2c2ccc(F)cc21
Cn1c(Oc2cccc(Cl)c2)nc2c1c(=O)n(Cc1ccccc1Cl)c(=O)n2C
CCOC(=O)c1scc(-c2ccc(C)cc2)c1S(=O)(=O)N1CCN(c2ccccc2)CC1
COc1ccc(-n2c(SCC(=O)Nc3ccc4c(c3)OCO4)nc3c([nH]c4ccccc43)c2=O)cc1
COc1ccc(S(=O)(=O)N(CC(=O)Nc2ccc(C)cc2)c2ccc(C)cc2)cc1OC
Cc1cc(C)c(Cn2cnc3nc4c(cc3c2=O)CCCC4)c(C)c1
CCOc1ccccc1NC(=O)CN(c1cc(C)cc(C)c1)S(=O)(=O)c1c(C)nn(C)c1C
Cc1ccc(-c2nnc(Nc3ccc(O)cc3)c3ccccc23)cc1S(=O)(=O)NC(C)(C)CO
CCOc1ccc2nc(Cl)c(C3CC(c4ccccc4)=NN3C(=O)CCC(=O)O)cc2c1 (stereo not drawn)
CC(=O)N1CCc2c(sc3c2c(=O)n(Cc2ccccc2)c(=O)n3Cc2ccccc2Cl)C1
CCCCN(CC)C(=O)CSc1nc2ccccc2c(=O)n1Cc1ccco1
COc1ccc(S(=O)(=O)N(CC(=O)NCCc2ccccc2)c2ccc(Cl)cc2)cc1

Activity change, negative = inhibition, inactive:
O=C(NCC(c1cccnc1)N1CCc2ccccc21)c1cccc(F)c1 (stereo not drawn) -7.57%
CC(C)(C)OC(=O)CN(Cc1ccc(Cl)cc1)Cc1ccc([N+](=O)[O-])s1 2.71%
O=C(NCC(c1ccco1)S(=O)(=O)c1cccs1)c1c(F)cccc1F (stereo not drawn) 1.17%
CCN(CC)C(=O)c1sc2c(c1C)c(=O)n(Cc1ccccc1)c(=O)n2Cc1c(C)cc(C)cc1C 1.64%
CCOc1ccc(S(=O)(=O)Nc2ccc3c(c2)CCCN3S(=O)(=O)c2ccc(C)cc2)cc1 -21.5%
Cc1ccc(CNC(=O)c2cc(NS(=O)(=O)c3ccc(C)cc3)ccn2)cc1 21.6%
Cc1ccc(NS(=O)(=O)c2ccc3[nH]c4c(c3c2)CCCCCC4)cc1C -25.8%
CCCOc1ccc(C(=O)Nc2ccc(NC(=O)c3ccc(Br)cc3)cc2)cc1 0.173%
Cc1cccc(Nc2nnc(-c3ccc(C)c(S(=O)(=O)N4CCOCC4)c3)c3ccccc23)c1 -4.03%
COc1ccc(CCNCc2c(C(=O)O)c(C)n(Cc3cccc(C)c3)c2C)cc1OC -2.02%
COC(=O)c1sc2cccc(F)c2c1S(=O)(=O)NCc1ccccc1Cl -7.89%
COc1ccc(NC(=O)CN(C)S(=O)(=O)c2ccc3nc(C)sc3c2)cc1Cl -10.7%
Cn1c(C(=O)NCc2ccccc2F)cc2cc(S(=O)(=O)N3CCCCC3)ccc21 -5.06%
Cc1cc(C)cc(NC(=O)C2CCN(c3nnc(-n4c(C)ccc4C)s3)CC2)c1 -3.47%
CC(=O)c1ccc(NS(=O)(=O)c2ccc3[nH]c(=O)[nH]c3c2)cc1 12.4%
COc1ccc(-c2noc(COc3ccc(C)cc3C)n2)cc1OC 15.1%
CCc1cccc(NC(=O)CN(C)S(=O)(=O)c2ccc3c(c2)n(C)c(=O)c(=O)n3C)c1 -5.52%
COc1ccc(Nc2cc(C)c3cc(NC(=O)COc4cccc(C)c4)ccc3n2)cc1 -3.89%
Cc1cccc(N2CCN(C(=O)CCNS(=O)(=O)c3ccc4c(c3)CCN4C(=O)C3CC3)CC2)c1C 13.3%
COc1cccc(CNC(=O)C2=C(C)C(=O)OC23CCCCCC3)c1 1.33%
O=C(CN1C(=O)c2ccccc2Sc2ncccc21)Nc1cccc(C(F)(F)F)c1 -6.58%
COc1ccc(Cl)cc1NC(=O)c1noc2c1CCc1ccccc1-2 1.41%
Cc1nn2c(C)c(C(=O)NCc3cccc(Br)c3)cnc2c1-c1ccccc1 -4.85%
CO[C@H]1O[C@@H]2O[C@@]3(C)CC[C@@H]4[C@@H](C)CC[C@@H]([C@H]1C)[C@@]24OO3 -30.6%
CCOc1ccc(S(=O)(=O)N(CC(=O)Nc2ccc(OC)c(Cl)c2)c2ccccc2)cc1 3.18%
CCc1cc(=O)oc2c(C)c(OCC(=O)Nc3ccc(S(=O)(=O)N(CC)CC)cc3)ccc12 -6.86%
CCOc1ccc(C(=O)NCC(c2ccc3c(c2)OCO3)N2CCN(C)CC2)cc1 (stereo not drawn) 6.06%
CCOc1ccc(NC(=O)N2CCC(n3c(C)nc4cccnc43)CC2)cc1 -2.96%
Cc1ccc(/C=C/c2onc(C)c2S(=O)(=O)N2CCC(C(=O)N3CCN(c4cc(C)ccc4C)CC3)CC2)cc1 3.98%
O=C(NOCC(O)CO)c1cc(Br)c(F)c(F)c1Nc1ccc(I)cc1F (stereo not drawn) 6.37%
COc1ccc(Nc2nc3c(S(=O)(=O)c4ccc(C)cc4)nnn3c3ccsc23)cc1Cl -2.96%
COc1cc2c(cc1OC)C(COc1ccccc1OC)N(C(=O)c1ccc(S(=O)(=O)N(C)C)cc1)CC2 (stereo not drawn) 3.58%
Cc1ccc(Cl)cc1N1CCN(C(=O)COc2cc(=O)n(C)c3ccccc23)CC1 -0.923%
COc1ccc(Nc2oc(/C=C/c3cc(OC)c(OC)c(OC)c3)nc2C#N)cc1 -0.94%
CC1CCN(S(=O)(=O)c2ccc3c(c2)N(CC(=O)NC(C)(C)C)C(=O)CS3)CC1 0.634%
COc1cccc(CNC(=O)Cn2c(=O)nc(-c3ccccc3F)c3cc(Cl)ccc32)c1 19.5%
COc1ccc(NC(=O)C2CCN(c3ccc(Sc4ccc(C)cc4)nn3)CC2)cc1 -7.38%
COC(=O)c1cc2sc(Cl)cc2n1Cc1nc(-c2ccccc2C)oc1C -2.21%
CCC1CCCCN1CCCNC(=O)c1c(O)nc2cc(C)ccn2c1=O (stereo not drawn) 2.11%
CC1CN(C(=O)N2CCC(C(=O)NCc3cccs3)CC2)c2ccccc2O1 (stereo not drawn) 5.93%
CCOc1ccc(C(=O)c2oc3ccccc3c2NC(=O)c2cc(=O)c3ccc(C)cc3o2)cc1 -4.75%
COc1ccc(NC(=O)c2ccco2)cc1NC(=O)c1cc(Br)ccc1Cl 0.0491%

From PubChem BioAssay AID1963576 (National Center for Advancing Translational Sciences (NCATS), 2024)
